Experimental data reported in PubChem BioAssay AID1948 (National Center for Advancing Translational Sciences (NCATS), 2009).
About 20 (0.02%) of roughly 110,000 compounds were called active. Inconclusive results, whose numbers are uncertain, are shown with a selection of clear calls. Calls come from the whole dose curve; as a rule, active = well fitted activation curve with a large enough effect; inconclusive = small, poorly fitted or top-dose-only effect; inactive = no such curve, though single readings can be large or run the other way. Potencies of inconclusive entries are left out as doubtful fits.

Assay: qHTS Assay for Compounds that Induce Erasure of Genomic Imprints;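 for activity change, positive = activation: 0% = negative control wells on the plate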
Conditions: mouse ES Peg3-LacZ reporter, beta-gal luminescence, 40 h; activity change, positive = activation: at 10.9 µM (top of the series) unless noted
Method in brief: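 Each well holds 300 Peg3LacZ-Neo (maternal) female ES cells incubated 40 h at 37C, 5% CO2. LacZ is measured by BetaGlo luminescence, with AC50 and maximum efficacy derived from dose-response curves.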
Potency is the fitted concentration of half-maximal effect; tags give direction and shape of the fitted curve.

Q: With `O=C(NCCc1ccccc1Cl)c1ccc(Cn2c(=O)c3cccn3c3cccnc32)cc1` as the compound, how does the activity change, positive = activation read?
A: inconclusive: 44.6% [activator]

Q: With `Cc1ccc(NC(=O)Cn2nnc(C(=O)NCc3ccccc3)c2N)cc1C` as the compound, how does the Potency read?
A: inconclusive [activator, single point]

Q: With `COc1cccc(CSc2nc3cc(C(=O)NC4CCCC4)ccc3c(=O)n2Cc2ccccc2)c1` as the compound, how does the activity change, positive = activation read?
A: inconclusive: 45.5% [activator]

Q: With `COC(=O)[C@@]1(Cc2ccc(OC)cc2)[C@H]2c3cc(C(=O)N4CCCC4)n(C[C@H](O)CO)c3C[C@H]2CN1C(=O)c1ccccc1` as the compound, how does the “activity change, positive = activation” value read?
A: inactive: -7.21% [at 60.7 µM]

Q: Which “activity change, positive = activation” value does the source give for `CCCCCCCCN` here?
A: inactive: 0.552% [at 60.7 µM]

Q: For `COc1ccc(NCc2nnc(SCC(=O)Nc3cccc(C)c3)o2)cc1`, which Potency is on record?
A: inconclusive [activator, single point]

Q: With `CCOC(=O)c1ccc(Nc2cc(C)nc3ncnn23)cc1` as the compound, how does the Potency read?
A: inconclusive [activator, single point]

Q: Which “activity change, positive = activation” value does the source give for `CCNc1ncc2nc(-c3cc(F)cc(F)c3)c(=O)n(C[C@H]3CCCO3)c2n1` here?
A: inactive: -2.28% [at 60.7 µM]

Q: For `COc1cccc(NC2=CC(c3ccc(C(C)C)cc3)N(c3cccc(OC)c3)C2=O)c1` (configuration not stated), which activity change, positive = activation is on record?
A: inconclusive: 31.8% [activator]

Q: For `COc1ccc(-c2cccc(NS(=O)(=O)c3ccc(NC(C)=O)cc3)c2)nn1`, which activity change, positive = activation is on record?
A: inconclusive: 32.9% [activator]

Q: For `Clc1ccc(C2=Nn3c(nnc3-c3n[nH]c4c3CCC4)SC2)cc1`, which “activity change, positive = activation” value is on record?
A: inactive: -23.3% [at 60.7 µM]

Q: Which Potency does the source give for `COC(=O)CSc1ccccc1C(=O)OC` here?
A: inconclusive [activator, single point]

Q: Which Potency does the source give for `CCS(=O)(=O)N1CCN(C(=O)CCC2CCCC2)CC1` here?
A: inconclusive [activator, single point]

Q: With `CC(C)(C)NC(=O)c1ccccc1-c1nc(-c2ccccc2Cl)no1` as the compound, how does the “activity change, positive = activation” value read?
A: inactive: -19.9% [at 60.7 µM]

Q: With `CC1CCCC(NC(=O)COC(=O)Cc2cn3ccsc3n2)C1C` (configuration not stated) as the compound, how does the Potency read?
A: inconclusive [activator, partial curve]

Q: With `CCN(CC)c1ccc(NC(=O)C2CCN(S(=O)(=O)c3c(C)noc3/C=C/c3ccccc3F)CC2)c(C)c1` as the compound, how does the activity change, positive = activation read?
A: inconclusive: 119% [activator]

Q: Which “activity change, positive = activation” value does the source give for `CCCN(CCC)C(=O)C1CCN(c2cc(C)nc3c(-c4ccc(Cl)cc4)c(C)nn23)CC1` here?
A: inactive: -10.2%

Q: Which “activity change, positive = activation” value does the source give for `O=C(Cn1c(=O)n(Cc2ccc(F)cc2)c(=O)c2sc3ccccc3c21)Nc1ccc(F)cc1F` here?
A: inactive: -13.6%

Q: For `COc1ccc(-c2nc3ccccc3s2)cc1NC(=O)COc1ccc(C)cc1`, which activity change, positive = activation is on record?
A: inconclusive: 30.9% [activator]

Q: For `Cc1nc2cnc(N(C)C)nc2n(C[C@H]2CCCO2)c1=O`, which Potency is on record?
A: inconclusive [activator, single point]

Q: With `Cc1ccccc1Cn1c(=O)n(Cc2ccc(Cl)cc2)c(=O)c2cccnc21` as the compound, how does the “activity change, positive = activation” value read?
A: inactive: -2.87%

Q: With `Fc1ccc(-c2nnc(-c3ccc(Cl)cc3Cl)o2)cc1` as the compound, how does the “activity change, positive = activation” value read?
A: inactive: -50.2% [at 60.7 µM]

Q: Which activity change, positive = activation does the source give for `COC(=O)c1cc2oc3ccccc3c2n1Cc1nc(-c2ccc(OC)cc2)oc1C` here?
A: inconclusive: 43.9% [activator]

Q: Which “activity change, positive = activation” value does the source give for `c1ccc2nc3c(nc2c1)[nH]c1ccccc13` here?
A: inactive: -68.4% [at 60.7 µM]

Q: Which Potency does the source give for `COc1ccccc1-c1cc(N(C)Cc2ccco2)ncn1` here?
A: inconclusive [activator, single point]

Q: Which Potency does the source give for `CCN(CC)c1nc2n(c(=O)n1)CCO2` here?
A: inconclusive [activator, single point]

Q: For `COc1cc(Cl)c(C)cc1NC(=O)c1ccc2c(Cl)c3c(nc2c1)CCC3`, which activity change, positive = activation is on record?
A: inconclusive: 34.4% [activator]

Q: With `CN1C(=O)c2ccccc2Sc2ccc(NC(=O)COc3ccc(F)cc3)cc21` as the compound, how does the activity change, positive = activation read?
A: inconclusive: 45.9% [activator]

Q: For `COc1cc(C2CC(=O)c3c([nH]c(C(=O)OCCOC(C)C)c3C)C2)cc(OC)c1OC` (configuration not stated), which “activity change, positive = activation” value is on record?
A: inactive: -25.2% [at 60.7 µM]

Q: Which Potency does the source give for `CCN1CCCC1CNC(=O)C1c2ccccc2C(=O)N(CCOC)C1c1ccc(F)cc1` (configuration not stated) here?
A: inconclusive [activator, single point]

Q: Which “activity change, positive = activation” value does the source give for `Cc1cccc(OCC(=O)OCc2cc(=O)n3nc(C4CCCCC4)sc3n2)c1` here?
A: inactive: -18.1%

Q: With `COc1ccccc1OCc1nnc(SCC(=O)N2CCCCC2)n1-c1ccccc1` as the compound, how does the Potency read?
A: inconclusive [activator, partial curve]

Q: Which activity change, positive = activation does the source give for `Cc1ccc(C)c(NC(=O)Cn2c(=O)n(Cc3ccco3)c(=O)c3oc4ccccc4c32)c1` here?
A: inconclusive: 39.4% [activator]

Q: With `Nc1cccc(-c2cn3ccsc3n2)c1` as the compound, how does the “activity change, positive = activation” value read?
A: inactive: -45.4%

Q: Which activity change, positive = activation does the source give for `Cc1cc(C)c2oc(C(=O)Nc3sc4c(c3C(=O)NCc3ccco3)CCC4)cc(=O)c2c1` here?
A: inconclusive: 72% [activator]

Q: For `CCc1cc2c(cc(C(=O)O)n2C)s1`, which Potency is on record?
A: inconclusive [activator, full curve, poor fit]

Q: With `COc1ccc(-c2nn(C)c3sc(C(=O)Nc4cccc(F)c4)cc23)cc1OC` as the compound, how does the activity change, positive = activation read?
A: inconclusive: 41.8% [activator]

Q: For `Cc1ccccc1OCC(=O)OCc1cc(=O)n2ccsc2n1`, which activity change, positive = activation is on record?
A: inconclusive: 33.9% [activator]

Q: With `N#Cc1cccc(-c2nc3cnc(N4CCOCC4)nc3n(Cc3ccc(F)cc3)c2=O)c1` as the compound, how does the Potency read?
A: inconclusive [activator, single point]

Q: With `COCC(C)OC(=O)C(C#N)c1nc2ccccc2nc1N1CCN(Cc2ccccc2)CC1` (configuration not stated) as the compound, how does the Potency read?
A: inconclusive [activator, single point]

Q: With `COc1ccc(NC(=O)[C@@H](c2ccccc2)N2Cc3ccccc3C2=O)cc1OC` as the compound, how does the activity change, positive = activation read?
A: inconclusive: 55.9% [activator]

Q: With `COc1cc(NC(=O)CCS(=O)(=O)c2nc(-c3cccs3)cc(C(F)(F)F)n2)cc(OC)c1OC` as the compound, how does the “activity change, positive = activation” value read?
A: inactive: -7.94%

Q: For `Cn1c(SCC(=O)Nc2ccccc2F)nnc1-c1cccnc1`, which Potency is on record?
A: inconclusive [activator, single point]

Q: For `COc1ccc(Br)cc1CNC(=O)c1ccc2c(c1)nc1n2CCCCC1`, which activity change, positive = activation is on record?
A: inconclusive: 31.3% [activator]

Q: With `COc1ccc(NC(=O)N2CCN(c3cc(-c4noc(C)n4)ccc3C)CC2)c(OC)c1` as the compound, how does the “activity change, positive = activation” value read?
A: inactive: -11.8%

Q: Which Potency does the source give for `O=c1[nH]c2cc([N+](=O)[O-])c([N+](=O)[O-])cc2[nH]c1=O` here?
A: inconclusive [activator, single point]

Q: For `O=c1cc(-c2ccc(O)cc2)oc2ccc(O)cc12`, which Potency is on record?
A: inconclusive [activator, full curve, poor fit]
